Common to all, as to conditions: 20 mM HEPES pH 7.9, 100 mM NaCl, 1 mM DTT, 0.2 mg/mL BSA, 0.02% Triton X-100, 2% milk, 0.4 mg/mL salmon testes DNA; 1 h; temperature not stated; high values mean tight binding; double strand, one strand shown; sequences stand for … in GCCTAGCAC…GTGCTAGGTCTTGATTCGCTTGACGCTGCTG
One assay concerns the target PU.1 (IVT) (UniProt P17947). The assay is described as follows: protein-binding microarray (PBM).
Assay [1] addresses PU.1 (endogenous, THP-1 nuclear extract) (UniProt P17947). The experiment in a line: nuclear extract protein-binding microarray (nextPBM).
Assay [2] addresses T1, FLI1 (endogenous, THP-1 nuclear extract) (UniProt Q01543).
T1 sequence: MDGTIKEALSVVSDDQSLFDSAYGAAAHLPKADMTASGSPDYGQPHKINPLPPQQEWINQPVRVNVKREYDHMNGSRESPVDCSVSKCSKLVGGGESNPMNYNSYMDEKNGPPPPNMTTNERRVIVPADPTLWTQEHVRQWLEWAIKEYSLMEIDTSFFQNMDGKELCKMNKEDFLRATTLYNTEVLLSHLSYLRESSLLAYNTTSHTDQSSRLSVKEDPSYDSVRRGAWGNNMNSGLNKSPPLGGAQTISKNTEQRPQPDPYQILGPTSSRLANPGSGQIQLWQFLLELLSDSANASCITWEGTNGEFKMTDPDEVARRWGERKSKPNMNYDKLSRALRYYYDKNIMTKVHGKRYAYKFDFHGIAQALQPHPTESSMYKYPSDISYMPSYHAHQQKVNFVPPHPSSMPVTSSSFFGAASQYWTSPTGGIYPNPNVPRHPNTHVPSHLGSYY
The assay is described as above.

This is one part of the list. For part of these data: At the low end of the ranking the order means little. For part of these data: Measured with an extract: partners may take part in the binding.

Turning to TGAAAAGGGAAGTGCTACAC, the binding signal with PU.1 (IVT) is 6.25 z-score; in assay [1], 6.26 z-score; in assay [2], 2.62 z-score.

With AGAGAGGGGAAGTAACTGTC, the binding signal amounted to 5.25 z-score in the assay with PU.1 (IVT), 5.04 z-score in assay [1] and 2.38 z-score in assay [2].

With AAAAAAAGGAACTAGCTAGA, the binding signal was found to be 5.63 z-score with PU.1 (IVT), 5.32 z-score in assay [1] and 1.85 z-score in assay [2].

As to CAAGAGAGGAAGTGGTCAAC, the binding signal with PU.1 (IVT) stood at 4.51 z-score; in assay [1], 4.91 z-score; in assay [2], 3.26 z-score.

With GAAAAAGGGAACTGGTTGGG, the binding signal came to 5.22 z-score with PU.1 (IVT), 5.92 z-score in assay [1] and 1.75 z-score in assay [2].

With AGGCTGAGGAAGTGGGATCT, the binding signal with PU.1 (IVT) was 2.87 z-score; in assay [1] it was 2.71 z-score; in assay [2] it was 1.96 z-score.

On to AGAAAGAGGAAGTCATCACT, for which the binding signal with PU.1 (IVT) came to 7.59 z-score; in assay [1], 7.37 z-score; in assay [2], 4.08 z-score.

With AGGAAAAGGAAGTCTCCCCA, the binding signal is 2.85 z-score with PU.1 (IVT), 2.81 z-score in assay [1] and 2.66 z-score in assay [2].

With AAAAAAAGGAAGTGGACCGT, the binding signal in the assay with PU.1 (IVT) came to 6.55 z-score; in assay [1], 6.67 z-score; in assay [2], 3.12 z-score.

As to GAAAACAGGAACTGGTAATT, the binding signal with PU.1 (IVT) is 5.84 z-score; in assay [1], 6.23 z-score; in assay [2] it was 2.67 z-score.

Regarding AGAAAGGGGAAGTCCAATAG, the binding signal came to 6.98 z-score with PU.1 (IVT), 7 z-score in assay [1] and 2.88 z-score in assay [2].

With GAAATAAGGAACTGCCACTG, the binding signal came out at 4.4 z-score with PU.1 (IVT), 4.37 z-score in assay [1] and 1.31 z-score in assay [2].

As for GGAAAGTGGAACTGCTCGCT, the binding signal with PU.1 (IVT) was found to be 2.19 z-score; in assay [1], 1.97 z-score; in assay [2], 0.698 z-score.

GCCAAGAGGAAGTGGGCAGA: the binding signal with PU.1 (IVT) was determined as 4.28 z-score; in assay [1] it was 5.02 z-score; in assay [2], 2.87 z-score.

In the case of GAGTGGGGGAAGTGAAACAA, the binding signal in the assay with PU.1 (IVT) came out at 2.85 z-score; in assay [1], 3.36 z-score; in assay [2] it was 1.62 z-score.

CGAAAGGGGTAGTGCTAAAC: the results for the binding signal (with PU.1 (IVT); in assay [1]; in assay [2]) were 1.12 z-score, 1.09 z-score and -0.105 z-score, respectively.

For TGAAAGAGGGAGTGCAACCA, the binding signal is -0.306 z-score with PU.1 (IVT), -0.258 z-score in assay [1] and -1.62 z-score in assay [2].

As to CAAAAGAGGAAGAGAATCAG, the binding signal with PU.1 (IVT) was found to be 5 z-score; in assay [1] it was 5.6 z-score; in assay [2], 1.9 z-score.

On to AGAAAGAGGAAGTGCCTCTT, for which the binding signal turned out to be 8.4 z-score with PU.1 (IVT), 7.53 z-score in assay [1] and 4.22 z-score in assay [2].

Turning to GAAAAGAGGAAGTCATACTG, the values for the binding signal (with PU.1 (IVT); in assay [1]; in assay [2]) were 8.35 z-score, 7.5 z-score and 4.19 z-score, respectively.

With AGAAAGAGGAAGTCACAAGG, the binding signal in the assay with PU.1 (IVT) was 7.68 z-score; in assay [1], 7.06 z-score; in assay [2], 3.47 z-score.

Turning to GGTTTGAGGAAGTGAATGGG, the figures for the binding signal (in the assay with PU.1 (IVT); in assay [1]; in assay [2]) were 6.28 z-score, 6.38 z-score and 3.12 z-score, respectively.

Take GAAAAGAGGATGTGGATCTG: the values for the binding signal (with PU.1 (IVT); in assay [1]; in assay [2]) were 3.52 z-score, 3.81 z-score and 1.87 z-score, respectively.

For AAAAAAAGGAACTGCAGACC, the binding signal in the assay with PU.1 (IVT) came out at 4.74 z-score; in assay [1] it was 4.35 z-score; in assay [2] it was 1.17 z-score.

AAAAAAAGGGACTGGCTAGA: the figures for the binding signal (in the assay with PU.1 (IVT); in assay [1]; in assay [2]) were -0.186 z-score, 0.191 z-score and -0.255 z-score, respectively.

As to ATTTAGAGGAAGTGGGTGGG, the binding signal with PU.1 (IVT) turned out to be 5.09 z-score; in assay [1] it was 5.9 z-score; in assay [2], 2.88 z-score.

Turning to GAAAAGAGGAAGTGTGAGAC, the figures for the binding signal (with PU.1 (IVT); in assay [1]; in assay [2]) were 7.97 z-score, 7.29 z-score and 3.66 z-score, respectively.

As to CAAATGAGGATCTGATGCGG, the figures for the binding signal (with PU.1 (IVT); in assay [1]; in assay [2]) were 0.781 z-score, 0.889 z-score and -0.432 z-score, respectively.

For CAAAAGAGGAAGTCACTGCA, the binding signal with PU.1 (IVT) is 8.02 z-score; in assay [1] it was 7.45 z-score; in assay [2], 3.64 z-score.

On to GGGAAGAGGAAGTGCTTAGC, for which the binding signal came to 6.06 z-score with PU.1 (IVT), 6.64 z-score in assay [1] and 3.48 z-score in assay [2].

Turning to ACAAGAAGGAACTGTGCCCC, the values for the binding signal (in the assay with PU.1 (IVT); in assay [1]; in assay [2]) were 1.28 z-score, 1.33 z-score and 0.666 z-score, respectively.

As to TCAAAGGGGAAGTGAGAAAA, the binding signal in the assay with PU.1 (IVT) is 5.37 z-score; in assay [1] it was 6.09 z-score; in assay [2], 2.99 z-score.

For the sequence AGAAAGAGGAAATGGGTTTA, the binding signal is 5.62 z-score with PU.1 (IVT), 5.89 z-score in assay [1] and 3.19 z-score in assay [2].

On to GAAAACAGGAAGTCCCAAAG, for which the binding signal is 6.87 z-score with PU.1 (IVT), 7.03 z-score in assay [1] and 4.43 z-score in assay [2].

As to GAAATGAGGAAGTCAAATTA, the binding signal with PU.1 (IVT) is 7.71 z-score; in assay [1], 7.32 z-score; in assay [2], 3.02 z-score.

On to CCAAAGAGGAACTGCAGATT, for which the figures for the binding signal (with PU.1 (IVT); in assay [1]; in assay [2]) were 4.14 z-score, 4.61 z-score and 1.4 z-score, respectively.

For GAGAAAGGGAAGTGGGTGGG, the binding signal with PU.1 (IVT) was determined as 4.21 z-score; in assay [1] it was 4.74 z-score; in assay [2], 2.28 z-score.

For the sequence CAAAAGGGGAAGTCAAAGAA, the results for the binding signal (in the assay with PU.1 (IVT); in assay [1]; in assay [2]) were 6.73 z-score, 6.89 z-score and 3.22 z-score, respectively.

In the case of TGAGAGAGGAAGTGGCAAGT, the binding signal worked out at 4.41 z-score with PU.1 (IVT), 4.59 z-score in assay [1] and 3.1 z-score in assay [2].

In the case of AAAAGAAGGAAGTGGGGGTA, the binding signal stood at 5.06 z-score with PU.1 (IVT), 5.71 z-score in assay [1] and 2.42 z-score in assay [2].

With AAAAAGAGGAAGTCAAATAA, the binding signal with PU.1 (IVT) came to 8.51 z-score; in assay [1], 7.58 z-score; in assay [2], 3.99 z-score.

As for ACACAAAGGAACTGTGCCCC, the results for the binding signal (in the assay with PU.1 (IVT); in assay [1]; in assay [2]) were 0.485 z-score, 0.553 z-score and 0.85 z-score, respectively.

As to CAAAGGAGGAACTGATGCGG, the binding signal with PU.1 (IVT) came to 3.85 z-score; in assay [1], 3.83 z-score; in assay [2], 1.51 z-score.

For the sequence CTGCAAAGGAAGTCTGGGCC, the values for the binding signal (with PU.1 (IVT); in assay [1]; in assay [2]) were 0.767 z-score, 0.872 z-score and 1.76 z-score, respectively.

Take CGAAAGGGGAAGTGTTAAAC: the binding signal with PU.1 (IVT) worked out at 7.14 z-score; in assay [1] it was 6.9 z-score; in assay [2], 3.63 z-score.

As to CACAAGGGGAAGTACTGTGC, the binding signal with PU.1 (IVT) came out at 5 z-score; in assay [1], 5.42 z-score; in assay [2], 1.92 z-score.

Regarding TAGAAGAGGAAGAGAGAAGT, the binding signal with PU.1 (IVT) was 3.35 z-score; in assay [1], 3.59 z-score; in assay [2], 1.18 z-score.

Take ACGAAGAGGAAGTAAAAGGC: the binding signal with PU.1 (IVT) was 6.54 z-score; in assay [1], 6.21 z-score; in assay [2], 2.89 z-score.

In the case of AAAAATAGGAACTGGCTAGA, the binding signal in the assay with PU.1 (IVT) came out at 3.72 z-score; in assay [1], 3.19 z-score; in assay [2], 0.938 z-score.

TCAAAGAGGAACTGATACCT: the binding signal with PU.1 (IVT) was 4.99 z-score; in assay [1] it was 5.31 z-score; in assay [2] it was 2 z-score.

(Values after PMC6451091.)
